{"source": "PubChem BioAssay AID686971", "about": "(National Center for Advancing Translational Sciences (NCATS), 2013)", "note": "Screen size: about 360,000 compounds; about 7,500 (2.1%) were called active. Inconclusive means that the source gave no clear call. Such entries were picked first, then a sample of the others. Calls come from the whole dose curve; as a rule, active = well fitted cell-killing curve with a large enough effect; inconclusive = small, poorly fitted or top-dose-only effect, or effect the other way, or another doubt; inactive = no such curve, though single readings can be large or run the other way. No potency is given beside an inconclusive call; the fits are too rough. Potency is the fitted concentration of half-maximal effect; tags give direction and shape of the fitted curve."}
{"assay": "qHTS for induction of synthetic lethality in tumor cells producing 2HG: qHTS for the HT-1080-IDH1KD cell line;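 for activity, negative = toxicity: 0% = DMSO wells and -100% = cell-free medium wells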", "details": "HT-1080 IDH1 knockdown viability, ATP luminescence, 48 h; activity, negative = toxicity: at 46.1 µM (top of the series) unless noted", "procedure,_shortened": "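Cytotoxicity counter-line: IDH1KD HT-1080, 48 h, CellTiter-Glo. Curves classed by r2, magnitude and activity.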"}
{"smiles": "CC(=O)Nc1cc(NC(C)=O)cc(C(=O)N2CCCC3CCCCC32)c1", "note": "(configuration not stated)", "activity, negative = toxicity": "inactive: 7.79%"}
{"smiles": "O=C(O)CC(CC(=O)Nc1ccc(-n2ccc(C(F)(F)F)n2)cc1)c1ccccc1", "note": "(configuration not stated)", "activity, negative = toxicity": "inactive: 2.69%"}
{"smiles": "O=C1c2cccc3cccc(c23)C(=O)N1CC1CCN(CC(O)COCc2ccc3c(c2)OCO3)CC1", "note": "(configuration not stated)", "Potency": "active: 20.6 µM"}
{"smiles": "C#CCN(C[C@@H]1[C@@H](OC(=O)Nc2cccs2)[C@@H](OC(=O)Nc2cccs2)Cn2c(=O)ccc(=O)n21)S(=O)(=O)c1ccc(C)cc1", "Potency": "active: 16.4 µM"}
{"smiles": "Cc1ccc(Cl)cc1NC(=O)c1cc2ccccc2cc1O", "Potency": "inconclusive [cytotoxic, full curve]"}
{"smiles": "CC1C(C#N)=C(N)OC2=C1C(=O)CC(C)(C)C2", "note": "(configuration not stated)", "activity, negative = toxicity": "inactive: 1.5%"}
{"smiles": "O=C(NCc1ccc(N2CCCC2=O)cc1)c1ccc(F)cc1", "activity, negative = toxicity": "inactive: 27.8%"}
{"smiles": "Cc1ccc(-n2ncc3c(=O)[nH]cnc32)c(C)c1", "Potency": "inconclusive [cytotoxic, full curve]"}
{"smiles": "COc1cccc(NC(=O)NCc2c(-c3ccccc3)noc2C)c1", "activity, negative = toxicity": "inactive: 8.46%"}
{"smiles": "CSc1ccc(S(=O)(=O)NCC(=O)OC(C)C(=O)NCc2ccccc2)cc1[N+](=O)[O-]", "note": "(configuration not stated)", "activity, negative = toxicity": "inactive: -2.53%"}
{"smiles": "CCOc1c(Br)cc(CNc2ccc3c(c2)OCCO3)cc1OC", "Potency": "active: 1.16 µM"}
{"smiles": "Cc1ccc2nc(-c3ccc(NC(=S)NCCC(C)C)cc3)sc2c1", "activity, negative = toxicity": "inactive: 18.3%"}
{"smiles": "CCc1cccc(NC(=O)COC(=O)c2cc([N+](=O)[O-])ccc2N2CCOCC2)c1", "Potency": "inconclusive [cytotoxic, single point]"}
{"smiles": "CC(=O)Nc1ccc(S(=O)(=O)n2cnc3cc(C)c(C)cc32)cc1", "activity, negative = toxicity": "inactive: -14.5%"}
{"smiles": "O=C(N/N=C/c1cc(Br)c(Br)o1)c1ccc2c(c1)OCCO2", "Potency": "inconclusive [cytotoxic, partial curve]"}
{"smiles": "NNC(=O)c1ccc(OCC2CC(c3ccc(Cl)cc3)=NO2)cc1", "note": "(configuration not stated)", "Potency": "inconclusive [cytotoxic, single point]"}
{"smiles": "COc1cccc(CN2CCN(Cc3ccccc3C(F)(F)F)CC2)c1", "activity, negative = toxicity": "inactive: -24.1%"}
{"smiles": "c1ccc(C2=Nn3c(nnc3-c3cc(-c4ccccc4)n[nH]3)SC2)cc1", "Potency": "inconclusive [cytotoxic, single point]"}
{"smiles": "CCc1cccc(OCCn2nc(C(=O)O)c3ccccc3c2=O)c1", "activity, negative = toxicity": "inconclusive: -21.6% [cytotoxic]"}
{"smiles": "c1ccc(-n2cc(CNCCc3cscn3)c(-c3ccc4c(c3)OCO4)n2)cc1", "Potency": "inconclusive [cytotoxic, single point]"}
{"smiles": "Cc1ccc(OCc2nc3c4c(ncn3n2)-c2ccccc2CC42CCCC2)cc1", "activity, negative = toxicity": "inactive: 8.18%"}
{"smiles": "Cc1cccc(NCc2nc3ccccc3n2C)c1", "activity, negative = toxicity": "inactive: 4.06%"}
